According to patent publication US5580852A, “Derivatives of tachyplesin having inhibitory activity towards plant pathogenic fungi” (Pioneer Hi-Bred International, Inc., priority 1993, dated 1996):

Key:
Aspergillus flavus = assay: Antifungal testing, MIC and MCIC; conditions: NA = not active
Description: (§1) Minimum Inhibitory Concentrations (MIC) and Minimum Complete Inhibitory Concentrations (MCIC) in μg/mL were determined for each of the compounds of this invention using the published methods of Duvick, J. P. et al, J. Biol. Chem., 267, 18814-18820 (1992).

Fusarium moniliforme = assay: Antifungal testing, MIC and MCIC; conditions: NA = not active
Description: as §1

E. coli = format: cell-based
B. pumillus = system: B. pumillus
Description: (§2) Minimum Inhibitory Concentrations (MIC) and Minimum Complete Inhibitory Concentrations (MCIC) in μg/mL against selected species of bacteria were determined for each of the compounds of this invention.

C. nebraskense = system: C. nebraskense
Description: as §2

E. stewartii = system: E. stewartii
Description: as §2

LBA 4404 = system: LBA 4404
Description: as §2

Row | Sequence | MCIC (Minimum Complete Inhibitory Concentration) (Aspergillus flavus) [µg/mL] | MIC (Minimum Inhibitory Concentration) (Aspergillus flavus) [mg/L] | MCIC (Minimum Complete Inhibitory Concentration) (Fusarium moniliforme) [µg/mL] | MIC (Minimum Inhibitory Concentration) (Fusarium moniliforme) [mg/L] | MCIC (Minimum Complete Inhibitory Concentration) (Fusarium graminearum) | MIC (Minimum Inhibitory Concentration) (Fusarium graminearum) | MCIC (Minimum Complete Inhibitory Concentration) (E. coli) [µg/mL] | MIC (Minimum Inhibitory Concentration) (E. coli) [mg/L] | MCIC (Minimum Complete Inhibitory Concentration) (B. pumillus) [µg/mL] | MIC (Minimum Inhibitory Concentration) (B. pumillus) [mg/L] | MCIC (Minimum Complete Inhibitory Concentration) (C. nebraskense) [µg/mL] | MIC (Minimum Inhibitory Concentration) (C. nebraskense) [mg/L] | MCIC (Minimum Complete Inhibitory Concentration) (E. stewartii) [µg/mL] | MIC (Minimum Inhibitory Concentration) (E. stewartii) [mg/L] | MCIC (Minimum Complete Inhibitory Concentration) (LBA 4404) [µg/mL] | MIC (Minimum Inhibitory Concentration) (LBA 4404) [mg/L]
1 | KWCFKVCYRGICYKKCK | 93 | 25 | 48 | 12 | 25 | 7.5 | > 100 | 3.13 | 100 | 6.25 | 25 | 3.13 | 25 | 3.13 | 12.5 | 3.13
2 | KWCFRVCYRGICYRRCRGSTSGKWCFRVCYRGICYRRCR [derivative of the peptide tachyplesin] | > 64 | 32 | 64 | 16 | 32 | 12 |  |  |  |  |  |  |  |  |  | 
